Cell viability data for 24 molecules are collected here from the supplement of paper PMC9588766.

Each structure is given as a SMILES string. Where a name gives a salt, the structure may show the parent alone. Over roughly 1,900 compounds, “cell viability of compound + 1 nM pemigatinib relative to pemigatinib-only (DMSO) wells” has its median near 0.95; the lowest 2% begin near 0.22. Some of the results follow.

The test deals with PDC-DUC18828. In words: cell viability of compound + 1 nM pemigatinib relative to pemigatinib-only (DMSO) wells (fraction); PDC-DUC18828 is a patient-derived cholangiocarcinoma cell line; higher = less growth inhibition. The note with it: first compound 1 µM; pemigatinib concentration 1 nM; 72 h. The procedure:
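Selleck Bioactive library screen in the patient-derived FGFR2 fusion-positive ICC cell line PDC-DUC18828 (500 cells/well). Each compound was tested at 1 uM with 1 nM pemigatinib, in triplicate, for 72 h. Viability was read by CellTiter-Glo and normalised to plate DMSO controls. Value is the paper's averaged normalised viability.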
With `CN1[C@@H]2C[C@@H](OC(=O)[C@H](CO)c3ccccc3)C[C@H]1[C@@H]1O[C@@H]12` [Scopolamine HBr] + CCN1C(=O)N(c2c(F)c(OC)cc(OC)c2F)Cc2cnc3[nH]c(CN4CCOCC4)cc3c21 [pemigatinib], the cell viability is 0.952. The same measure for `CN(C)CCc1ccc(O)cc1` [Hordenine] + CCN1C(=O)N(c2c(F)c(OC)cc(OC)c2F)Cc2cnc3[nH]c(CN4CCOCC4)cc3c21 [pemigatinib]: 0.936. The same measure for `COc1ccc(N(C(=O)Oc2c(C)cccc2C)c2ccnc(Nc3ccc(N4CCN(C)CC4)cc3)n2)c(OC)c1` + CCN1C(=O)N(c2c(F)c(OC)cc(OC)c2F)Cc2cnc3[nH]c(CN4CCOCC4)cc3c21 [pemigatinib]: 0.982; for `COC1=C[C@@H]2[C@@H]3Cc4ccc(OC)c(O)c4[C@]2(CCN3C)CC1=O` [Sinomenine] + CCN1C(=O)N(c2c(F)c(OC)cc(OC)c2F)Cc2cnc3[nH]c(CN4CCOCC4)cc3c21 [pemigatinib]: 0.956; for `CC(C)[C@]12O[C@H]1[C@@H]1O[C@]13[C@]1(O[C@H]1C[C@H]1C4=C(CC[C@@]13C)C(=O)OC4)[C@@H]2O` [Triptolide (PG490)] + CCN1C(=O)N(c2c(F)c(OC)cc(OC)c2F)Cc2cnc3[nH]c(CN4CCOCC4)cc3c21 [pemigatinib]: 0.221. The same measure for `CC(C)(C)c1cc(C=C(C#N)C#N)cc(Br)c1O` + CCN1C(=O)N(c2c(F)c(OC)cc(OC)c2F)Cc2cnc3[nH]c(CN4CCOCC4)cc3c21 [pemigatinib]: 0.966; for `CC(NC(C)(C)C)C(=O)c1cccc(Cl)c1` (centres undefined) [Amfebutamone HCl] + CCN1C(=O)N(c2c(F)c(OC)cc(OC)c2F)Cc2cnc3[nH]c(CN4CCOCC4)cc3c21 [pemigatinib]: 0.961; for `Cn1c(CCCC(=O)O)nc2cc(N(CCCl)CCCl)ccc21` [Bendamustine HCl] + CCN1C(=O)N(c2c(F)c(OC)cc(OC)c2F)Cc2cnc3[nH]c(CN4CCOCC4)cc3c21 [pemigatinib]: 0.984.

For the molecule `O=C1CC[C@@]2(O)[C@H]3Cc4ccc(O)c5c4[C@@]2(CCN3CC2CC2)[C@H]1O5` [Naltrexone HCl] + CCN1C(=O)N(c2c(F)c(OC)cc(OC)c2F)Cc2cnc3[nH]c(CN4CCOCC4)cc3c21 [pemigatinib], the cell viability was found to be 1.05. For the molecule `CN1[C@@H]2CC(O)C[C@H]1[C@@H]1O[C@@H]12` (some centres undefined) [Scopine] + CCN1C(=O)N(c2c(F)c(OC)cc(OC)c2F)Cc2cnc3[nH]c(CN4CCOCC4)cc3c21 [pemigatinib], the cell viability was 0.941. The same measure for `CC1(C)CC(O)CC(C)(C)N1[O]` [Tempol] + CCN1C(=O)N(c2c(F)c(OC)cc(OC)c2F)Cc2cnc3[nH]c(CN4CCOCC4)cc3c21 [pemigatinib]: 0.935; for `O=S(=O)(CC1CS1)c1ccc(Oc2ccccc2)cc1` (centres undefined) + CCN1C(=O)N(c2c(F)c(OC)cc(OC)c2F)Cc2cnc3[nH]c(CN4CCOCC4)cc3c21 [pemigatinib]: 0.996. With `O=c1[nH]c2ccccc2n1CCCN1CCC(n2c(=O)[nH]c3cc(Cl)ccc32)CC1` [Domperidone] + CCN1C(=O)N(c2c(F)c(OC)cc(OC)c2F)Cc2cnc3[nH]c(CN4CCOCC4)cc3c21 [pemigatinib], the cell viability stood at 0.936. The same measure for `C/C(=C\c1csc(C)n1)[C@@H]1C[C@@H]2O[C@]2(C)CCC[C@H](C)[C@H](O)[C@@H](C)C(=O)C(C)(C)[C@@H](O)CC(=O)O1` [Epothilone B (EPO906, Patupilone)] + CCN1C(=O)N(c2c(F)c(OC)cc(OC)c2F)Cc2cnc3[nH]c(CN4CCOCC4)cc3c21 [pemigatinib]: 0.211; for `C=CC[C@]1(O)CC[C@H]2[C@@H]3CCC4=CC(=O)CCC4=C3C=C[C@@]21C` [Altrenogest] + CCN1C(=O)N(c2c(F)c(OC)cc(OC)c2F)Cc2cnc3[nH]c(CN4CCOCC4)cc3c21 [pemigatinib]: 0.926. The same measure for `COC[C@H]1OC(=O)c2coc3c2[C@@]1(C)C1=C(C3=O)[C@@H]2CCC(=O)[C@@]2(C)C[C@H]1OC(C)=O` [Wortmannin] + CCN1C(=O)N(c2c(F)c(OC)cc(OC)c2F)Cc2cnc3[nH]c(CN4CCOCC4)cc3c21 [pemigatinib]: 0.719; for `C=C[C@H]1CN2CC[C@H]1C[C@H]2[C@H](O)c1ccnc2ccccc12` [Cinchonidine] + CCN1C(=O)N(c2c(F)c(OC)cc(OC)c2F)Cc2cnc3[nH]c(CN4CCOCC4)cc3c21 [pemigatinib]: 1.03. With `Cc1cccc(C(C)c2c[nH]cn2)c1C` (centres undefined) [Medetomidine HCl] + CCN1C(=O)N(c2c(F)c(OC)cc(OC)c2F)Cc2cnc3[nH]c(CN4CCOCC4)cc3c21 [pemigatinib], the cell viability came out at 0.953. The same measure for `NCCc1ccc(S(=O)(=O)F)cc1` + CCN1C(=O)N(c2c(F)c(OC)cc(OC)c2F)Cc2cnc3[nH]c(CN4CCOCC4)cc3c21 [pemigatinib]: 1; for `Fc1cc(F)c2c(c1)[C@H]1C=CC[C@H]1C(c1cccnc1)N2` (some centres undefined) [Golgicide A] + CCN1C(=O)N(c2c(F)c(OC)cc(OC)c2F)Cc2cnc3[nH]c(CN4CCOCC4)cc3c21 [pemigatinib]: 0.953. The result for `CN1[C@@H]2CC[C@H]1C[C@@H](OC(=O)[C@H](CO)c1ccccc1)C2` [Hyoscyamine] + CCN1C(=O)N(c2c(F)c(OC)cc(OC)c2F)Cc2cnc3[nH]c(CN4CCOCC4)cc3c21 [pemigatinib] reads 0.979; that for `Nc1nc(N)nc(NC2CC2)n1` [Cyromazine] + CCN1C(=O)N(c2c(F)c(OC)cc(OC)c2F)Cc2cnc3[nH]c(CN4CCOCC4)cc3c21 [pemigatinib], 0.99. The same measure for `c1cc2c(cc1[C@H]1OC[C@H]3[C@@H]1CO[C@@H]3c1ccc3c(c1)OCO3)OCO2` [Sesamin] + CCN1C(=O)N(c2c(F)c(OC)cc(OC)c2F)Cc2cnc3[nH]c(CN4CCOCC4)cc3c21 [pemigatinib]: 0.925; for `Cc1cc(O)ccc1Cl` [Chlorocresol] + CCN1C(=O)N(c2c(F)c(OC)cc(OC)c2F)Cc2cnc3[nH]c(CN4CCOCC4)cc3c21 [pemigatinib]: 0.996.
